# The supplement of paper PMC10037445
# Whole data set: some 2,900 compounds, median “NF-kB SEAP reporter activity, fold change vs agonist alone” near 0.99, cut for the highest 2% near 2.6. Some of the results follow.
# What was measured:
# RAW-Dual [1] = test: NF-kB SEAP reporter activity, fold change vs agonist alone; higher = enhanced NF-kB activity; conditions: library stock concentration (final ~1000-fold dilution): 10 mM
# Procedure, shortened: (§1)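 After 50 nL of library stock was delivered by pin tool to RAW-Dual macrophages (50,000 cells/well, DMEM, 384-well plates), a PRR agonist was added 1 h later and the plates were kept at 37 °C, 5% CO2. Twenty hours later, IRF was read from supernatant by QuantiLuc luminescence and NF-κB by QuantiBlue absorbance at 620 nm. Reporter activity is stated as fold change over agonist-alone wells. Wells with IncuCyte confluency under 70% of agonist controls in both mask sets were counted as cytotoxic.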
# RAW-Dual [2] = test: NF-kB SEAP reporter activity, fold change vs agonist alone; cytotoxicity flag (confluency mask): not cytotoxic; higher = enhanced NF-kB activity
# Procedure, shortened: as §1
# RAW-Dual [3] = test: NF-kB SEAP reporter activity, fold change vs agonist alone; cytotoxicity flag (confluency mask): cytotoxic (confluency <70% of control); higher = enhanced NF-kB activity
# Procedure, shortened: as §1
# [4] = cytotoxicity flag (confluency mask): not cytotoxic, agonist: Imiquimod (TLR7) […]
# [5] = cytotoxicity flag (confluency mask): not cytotoxic, agonist: MPLA (TLR4) […]
# [6] = agonist: ODN 1826 (TLR9) 0.5 ug/mL
# [7] = agonist: Pam2CSK4 (TLR2/6) 0.1 ug/mL
# [8] = agonist: Pam3CSK4 (TLR2/1) 0.1 ug/mL
# [9] = cytotoxicity flag (confluency mask): cytotoxic (confluency <70% of control), agonist: Imiquimod (TLR7) […]
# [10] = cytotoxicity flag (confluency mask): cytotoxic (confluency <70% of control), agonist: MPLA (TLR4) […]
structure (smiles),measurement,setting,value
CCCCCCCCCCCCCCCCn1cc[n+](Cc2ccccc2)c1C,NF-kB SEAP reporter activity,RAW-Dual [1]; [4],1.42
same,NF-kB SEAP reporter activity,RAW-Dual [1]; [5],0.947
CCCCCCCCCCCCCCCCn1cc[n+](Cc2ccccc2)c1C (library stock concentration (final ~1000-fold dilution): 10 mM),NF-kB SEAP reporter activity,RAW-Dual [2]; agonist: LPS (TLR4) 0.1 ug/mL,0.488
same,NF-kB SEAP reporter activity,RAW-Dual [2]; [6],1.36
same,NF-kB SEAP reporter activity,RAW-Dual [2]; [7],0.273
same,NF-kB SEAP reporter activity,RAW-Dual [2]; [8],0.294
Cc1cnc(-c2ccccc2C(C)C)nc1NCc1ccc(-n2ccnn2)cc1,NF-kB SEAP reporter activity,RAW-Dual [1]; [4],1.01
same,NF-kB SEAP reporter activity,RAW-Dual [1]; [5],1.26
Cc1cnc(-c2ccccc2C(C)C)nc1NCc1ccc(-n2ccnn2)cc1 (library stock concentration (final ~1000-fold dilution): 10 mM),NF-kB SEAP reporter activity,RAW-Dual [2]; agonist: LPS (TLR4) 0.1 ug/mL,1.5
same,NF-kB SEAP reporter activity,RAW-Dual [2]; [6],0.943
same,NF-kB SEAP reporter activity,RAW-Dual [2]; [7],0.73
same,NF-kB SEAP reporter activity,RAW-Dual [2]; [8],1.18
O=C(CCNNC(=O)c1ccncc1)NCc1ccccc1 (library stock concentration (final ~1000-fold dilution): 10 mM),NF-kB SEAP reporter activity,RAW-Dual [2]; agonist: LPS (TLR4) 0.1 ug/mL,0.997
same,NF-kB SEAP reporter activity,RAW-Dual [2]; [6],1.03
same,NF-kB SEAP reporter activity,RAW-Dual [2]; [7],0.962
same,NF-kB SEAP reporter activity,RAW-Dual [2]; [8],0.955
O=C(CCNNC(=O)c1ccncc1)NCc1ccccc1,NF-kB SEAP reporter activity,RAW-Dual [1]; [4],0.939
same,NF-kB SEAP reporter activity,RAW-Dual [1]; [5],1
Nc1ccc(-c2ccc3ncc4ccc(=O)n(-c5cccc(C(F)(F)F)c5)c4c3c2)cn1 (library stock concentration (final ~1000-fold dilution): 10 mM),NF-kB SEAP reporter activity,RAW-Dual [3]; agonist: LPS (TLR4) 0.1 ug/mL,5.68
same,NF-kB SEAP reporter activity,RAW-Dual [3]; [6],2.16
same,NF-kB SEAP reporter activity,RAW-Dual [3]; [7],1.77
same,NF-kB SEAP reporter activity,RAW-Dual [3]; [8],3.14
Nc1ccc(-c2ccc3ncc4ccc(=O)n(-c5cccc(C(F)(F)F)c5)c4c3c2)cn1,NF-kB SEAP reporter activity,RAW-Dual [1]; [9],2.12
same,NF-kB SEAP reporter activity,RAW-Dual [1]; [10],2.7
COC(=O)C(CCSC)NC(=O)c1ccc(NCC(N)CS)cc1-c1ccccc1.Cl (stereo not given),NF-kB SEAP reporter activity,RAW-Dual [1]; [4],1.13
same,NF-kB SEAP reporter activity,RAW-Dual [1]; [5],1.22
COC(=O)C(CCSC)NC(=O)c1ccc(NCC(N)CS)cc1-c1ccccc1.Cl (stereo not given) (library stock concentration (final ~1000-fold dilution): 10 mM),NF-kB SEAP reporter activity,RAW-Dual [2]; agonist: LPS (TLR4) 0.1 ug/mL,1.38
same,NF-kB SEAP reporter activity,RAW-Dual [2]; [6],1.56
same,NF-kB SEAP reporter activity,RAW-Dual [2]; [7],1.16
same,NF-kB SEAP reporter activity,RAW-Dual [2]; [8],0.929
COc1cc2nc(N(C)CCCNC(=O)C3CCCO3)nc(N)c2cc1OC.Cl (stereo not given) (library stock concentration (final ~1000-fold dilution): 10 mM),NF-kB SEAP reporter activity,RAW-Dual [2]; agonist: LPS (TLR4) 0.1 ug/mL,1.21
same,NF-kB SEAP reporter activity,RAW-Dual [2]; [6],0.916
same,NF-kB SEAP reporter activity,RAW-Dual [2]; [7],0.953
same,NF-kB SEAP reporter activity,RAW-Dual [2]; [8],1.09
COc1cc2nc(N(C)CCCNC(=O)C3CCCO3)nc(N)c2cc1OC.Cl (stereo not given),NF-kB SEAP reporter activity,RAW-Dual [1]; [4],1.08
same,NF-kB SEAP reporter activity,RAW-Dual [1]; [5],0.909
COc1cc2nc(N3CCCC3)nc(NCCCCCN3CCCC3)c2cc1OC (library stock concentration (final ~1000-fold dilution): 10 mM),NF-kB SEAP reporter activity,RAW-Dual [3]; agonist: LPS (TLR4) 0.1 ug/mL,0.465
same,NF-kB SEAP reporter activity,RAW-Dual [3]; [6],0.186
same,NF-kB SEAP reporter activity,RAW-Dual [3]; [7],0.411
same,NF-kB SEAP reporter activity,RAW-Dual [3]; [8],0.476
COc1cc2nc(N3CCCC3)nc(NCCCCCN3CCCC3)c2cc1OC,NF-kB SEAP reporter activity,RAW-Dual [1]; [9],0.736
same,NF-kB SEAP reporter activity,RAW-Dual [1]; [10],0.486
Nc1nc(N)c(N=O)c(OCC2CCCCC2)n1,NF-kB SEAP reporter activity,RAW-Dual [1]; [4],0.752
same,NF-kB SEAP reporter activity,RAW-Dual [1]; [5],1.66
Nc1nc(N)c(N=O)c(OCC2CCCCC2)n1 (library stock concentration (final ~1000-fold dilution): 10 mM),NF-kB SEAP reporter activity,RAW-Dual [2]; agonist: LPS (TLR4) 0.1 ug/mL,1.39
same,NF-kB SEAP reporter activity,RAW-Dual [2]; [6],0.97
same,NF-kB SEAP reporter activity,RAW-Dual [2]; [7],1.04
same,NF-kB SEAP reporter activity,RAW-Dual [2]; [8],0.655
Cn1cnc2c(F)c(Nc3ccc(Br)cc3F)c(C(=O)NOCCO)cc21 (library stock concentration (final ~1000-fold dilution): 10 mM),NF-kB SEAP reporter activity,RAW-Dual [2]; agonist: LPS (TLR4) 0.1 ug/mL,0.182
same,NF-kB SEAP reporter activity,RAW-Dual [2]; [6],0.308
same,NF-kB SEAP reporter activity,RAW-Dual [2]; [7],0.0645
same,NF-kB SEAP reporter activity,RAW-Dual [2]; [8],0.118
Cn1cnc2c(F)c(Nc3ccc(Br)cc3F)c(C(=O)NOCCO)cc21,NF-kB SEAP reporter activity,RAW-Dual [1]; [4],0.193
same,NF-kB SEAP reporter activity,RAW-Dual [1]; [5],0.23
CN(C(Cc1ccc(OS(=O)(=O)c2cccc3cnccc23)cc1)C(=O)N1CCN(c2ccccc2)CC1)S(=O)(=O)c1cccc2cnccc12 (stereo not given) (library stock concentration (final ~1000-fold dilution): 10 mM),NF-kB SEAP reporter activity,RAW-Dual [2]; agonist: LPS (TLR4) 0.1 ug/mL,1.47
same,NF-kB SEAP reporter activity,RAW-Dual [2]; [6],1.13
same,NF-kB SEAP reporter activity,RAW-Dual [2]; [7],0.814
same,NF-kB SEAP reporter activity,RAW-Dual [2]; [8],0.751
CN(C(Cc1ccc(OS(=O)(=O)c2cccc3cnccc23)cc1)C(=O)N1CCN(c2ccccc2)CC1)S(=O)(=O)c1cccc2cnccc12 (stereo not given),NF-kB SEAP reporter activity,RAW-Dual [1]; [4],1.12
same,NF-kB SEAP reporter activity,RAW-Dual [1]; [5],1.32
COC1/C=C/OC2(C)Oc3c(C)c(O)c4c(O)c(c5c(nc6cc(C)ccn65)c4c3C2=O)NC(=O)/C(C)=C\C=C\C(C)C(O)C(C)C(O)C(C)C(OC(C)=O)C1C (stereo not given),NF-kB SEAP reporter activity,RAW-Dual [1]; [4],0.894
same,NF-kB SEAP reporter activity,RAW-Dual [1]; [5],0.832
COC1/C=C/OC2(C)Oc3c(C)c(O)c4c(O)c(c5c(nc6cc(C)ccn65)c4c3C2=O)NC(=O)/C(C)=C\C=C\C(C)C(O)C(C)C(O)C(C)C(OC(C)=O)C1C (stereo not given) (library stock concentration (final ~1000-fold dilution): 10 mM),NF-kB SEAP reporter activity,RAW-Dual [2]; agonist: LPS (TLR4) 0.1 ug/mL,1.17
same,NF-kB SEAP reporter activity,RAW-Dual [2]; [6],1.03
same,NF-kB SEAP reporter activity,RAW-Dual [2]; [7],0.971
same,NF-kB SEAP reporter activity,RAW-Dual [2]; [8],0.975
CN1CCC(Nc2nc(Nc3ccc(Oc4ccccc4)cc3)c3c(=O)[nH]cc(Br)c3n2)CC1 (library stock concentration (final ~1000-fold dilution): 10 mM),NF-kB SEAP reporter activity,RAW-Dual [2]; agonist: LPS (TLR4) 0.1 ug/mL,0.817
same,NF-kB SEAP reporter activity,RAW-Dual [2]; [6],0.899
same,NF-kB SEAP reporter activity,RAW-Dual [2]; [7],0.822
same,NF-kB SEAP reporter activity,RAW-Dual [2]; [8],0.933
CN1CCC(Nc2nc(Nc3ccc(Oc4ccccc4)cc3)c3c(=O)[nH]cc(Br)c3n2)CC1,NF-kB SEAP reporter activity,RAW-Dual [1]; [4],0.999
same,NF-kB SEAP reporter activity,RAW-Dual [1]; [5],1.01
NC(=O)c1cccc(-c2cccc(OC(=O)NC3CCCCC3)c2)c1 (library stock concentration (final ~1000-fold dilution): 10 mM),NF-kB SEAP reporter activity,RAW-Dual [2]; agonist: LPS (TLR4) 0.1 ug/mL,0.736
same,NF-kB SEAP reporter activity,RAW-Dual [2]; [6],0.771
same,NF-kB SEAP reporter activity,RAW-Dual [2]; [7],1.16
same,NF-kB SEAP reporter activity,RAW-Dual [2]; [8],1.16
NC(=O)c1cccc(-c2cccc(OC(=O)NC3CCCCC3)c2)c1,NF-kB SEAP reporter activity,RAW-Dual [1]; [4],1.11
same,NF-kB SEAP reporter activity,RAW-Dual [1]; [5],1.13
Cc1[nH]c(=O)c(C#N)cc1-c1ccc2nccn2c1 (library stock concentration (final ~1000-fold dilution): 10 mM),NF-kB SEAP reporter activity,RAW-Dual [2]; agonist: LPS (TLR4) 0.1 ug/mL,0.814
same,NF-kB SEAP reporter activity,RAW-Dual [2]; [6],0.943
same,NF-kB SEAP reporter activity,RAW-Dual [2]; [7],1.07
same,NF-kB SEAP reporter activity,RAW-Dual [2]; [8],0.818
Cc1[nH]c(=O)c(C#N)cc1-c1ccc2nccn2c1,NF-kB SEAP reporter activity,RAW-Dual [1]; [4],0.701
same,NF-kB SEAP reporter activity,RAW-Dual [1]; [5],0.957
CCN(CC)CCNC(=O)c1c(C)[nH]c(/C=C2/C(=O)Nc3ccc(-c4csc(-c5ccccc5)n4)cc32)c1C (library stock concentration (final ~1000-fold dilution): 10 mM),NF-kB SEAP reporter activity,RAW-Dual [3]; agonist: LPS (TLR4) 0.1 ug/mL,0.882
same,NF-kB SEAP reporter activity,RAW-Dual [3]; [6],0.397
same,NF-kB SEAP reporter activity,RAW-Dual [3]; [7],0.37
same,NF-kB SEAP reporter activity,RAW-Dual [3]; [8],0.645
CCN(CC)CCNC(=O)c1c(C)[nH]c(/C=C2/C(=O)Nc3ccc(-c4csc(-c5ccccc5)n4)cc32)c1C,NF-kB SEAP reporter activity,RAW-Dual [1]; [9],1.35
same,NF-kB SEAP reporter activity,RAW-Dual [1]; [10],1.55
COc1c(-c2ccc3cc(NS(C)(=O)=O)ccc3c2)cc(-n2ccc(=O)[nH]c2=O)cc1C(C)(C)C,NF-kB SEAP reporter activity,RAW-Dual [1]; [5],1.35
COc1c(-c2ccc3cc(NS(C)(=O)=O)ccc3c2)cc(-n2ccc(=O)[nH]c2=O)cc1C(C)(C)C (library stock concentration (final ~1000-fold dilution): 10 mM),NF-kB SEAP reporter activity,RAW-Dual [2]; agonist: LPS (TLR4) 0.1 ug/mL,1.69
same,NF-kB SEAP reporter activity,RAW-Dual [2]; [6],0.702
same,NF-kB SEAP reporter activity,RAW-Dual [2]; [7],0.56
same,NF-kB SEAP reporter activity,RAW-Dual [2]; [8],0.383
